Source: the supplement of paper PMC12230231
± gives the standard deviation of the averaged measurements. Restriction of a single-cycle SIVsab GFP reporter by TRIM5α v1-loop variants in CRFK cells. Human variants: read share among cells still uninfected after two challenges over input, higher = gained restriction. Rhesus variants: share among infected cells over input, higher = lost restriction. Reporter dose not given per row. No active / inactive call per row; the paper calls a change when both replicates lie above its controls (mean + 2 SD of stop or wild-type variants, or the top frameshift score). Residues outside the varied loop are taken from Swiss-Prot. The paper reads the human single-substitution scores as noise; they and the rhesus combinations repeat poorly (rank correlation 0.3 to 0.4), indel scores repeat only for the top variants, rhesus substitutions well (0.9).

test system: SIVsab (simian immunodeficiency virus of sabaeus monkeys), single-cycle GFP reporter, in CRFK cells; assay: enrichment among uninfected cells over input (fold); higher = stronger restriction; details: library: human / rhesus combinations
Procedure: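 Pools of CRFK cells expressing variants of the TRIM5α v1 loop were challenged with the single-cycle reporter, sorted by GFP and sequenced; mean of two replicates.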

Row | Sequence | enrichment
1 | MASGILVNVKEEVTCPICLELLTQPLSLDCGHSFCQACLTANHKKSMLDKGESSCPVCRISYQPENIRPNRHVANIVEKLREVKLSPEGQKVDHCARHGEKLLLFCQEDGKVICWLCERSQEHRGHHTFLTEEVAREYQVKLQAALEMLRQKQQEAEELEADIREEKASWKTQIQYDKTNVLADFEQLRDILDWEESNELQNLEKEEEDILKSLTNSETEMVQQTQSLRELISDLEHRLQGSVMELLQGVDGVIKRTENVTLKKPETFPKNQRRVFRAPDLKGMLEVFRELTDVRRYWVDVTVAPNNISCAVISEDKRQVSSPKPQIIYGAPGTRYTFQSFVNFNYCTGILGSQSITSGKHYWEVDVSKKTAWILGVCAGFQPDAMCNIEKNENYQPKYGYWVIGLEEGVKCSAFQDSSFHTPSVPFIVPLSVIICPDRVGVFLDYEACTVSFFNITNHGFLIYKFSHCSFSQPVFPYLNPRKCGVPMTLCSPSS [human TRIM5α, 330-340 = GAPGTRYTFQSFV] | 0.226 ± 0.096
2 | MASGILVNVKEEVTCPICLELLTQPLSLDCGHSFCQACLTANHKKSMLDKGESSCPVCRISYQPENIRPNRHVANIVEKLREVKLSPEGQKVDHCARHGEKLLLFCQEDGKVICWLCERSQEHRGHHTFLTEEVAREYQVKLQAALEMLRQKQQEAEELEADIREEKASWKTQIQYDKTNVLADFEQLRDILDWEESNELQNLEKEEEDILKSLTNSETEMVQQTQSLRELISDLEHRLQGSVMELLQGVDGVIKRTENVTLKKPETFPKNQRRVFRAPDLKGMLEVFRELTDVRRYWVDVTVAPNNISCAVISEDKRQVSSPKPQIIYQAPGTRFQSLVNFNYCTGILGSQSITSGKHYWEVDVSKKTAWILGVCAGFQPDAMCNIEKNENYQPKYGYWVIGLEEGVKCSAFQDSSFHTPSVPFIVPLSVIICPDRVGVFLDYEACTVSFFNITNHGFLIYKFSHCSFSQPVFPYLNPRKCGVPMTLCSPSS [human TRIM5α, 330-340 = QAPGTRFQSLV] | 0.0619 ± 0.085
3 | MASGILVNVKEEVTCPICLELLTQPLSLDCGHSFCQACLTANHKKSMLDKGESSCPVCRISYQPENIRPNRHVANIVEKLREVKLSPEGQKVDHCARHGEKLLLFCQEDGKVICWLCERSQEHRGHHTFLTEEVAREYQVKLQAALEMLRQKQQEAEELEADIREEKASWKTQIQYDKTNVLADFEQLRDILDWEESNELQNLEKEEEDILKSLTNSETEMVQQTQSLRELISDLEHRLQGSVMELLQGVDGVIKRTENVTLKKPETFPKNQRRVFRAPDLKGMLEVFRELTDVRRYWVDVTVAPNNISCAVISEDKRQVSSPKPQIIYGAPGTLFQTFTNFNYCTGILGSQSITSGKHYWEVDVSKKTAWILGVCAGFQPDAMCNIEKNENYQPKYGYWVIGLEEGVKCSAFQDSSFHTPSVPFIVPLSVIICPDRVGVFLDYEACTVSFFNITNHGFLIYKFSHCSFSQPVFPYLNPRKCGVPMTLCSPSS [human TRIM5α, 330-340 = GAPGTLFQTFT] | 0.00384 ± 0.0024
4 | MASGILVNVKEEVTCPICLELLTQPLSLDCGHSFCQACLTANHKKSMLDKGESSCPVCRISYQPENIRPNRHVANIVEKLREVKLSPEGQKVDHCARHGEKLLLFCQEDGKVICWLCERSQEHRGHHTFLTEEVAREYQVKLQAALEMLRQKQQEAEELEADIREEKASWKTQIQYDKTNVLADFEQLRDILDWEESNELQNLEKEEEDILKSLTNSETEMVQQTQSLRELISDLEHRLQGSVMELLQGVDGVIKRTENVTLKKPETFPKNQRRVFRAPDLKGMLEVFRELTDVRRYWVDVTVAPNNISCAVISEDKRQVSSPKPQIIYGAPGTRFQSLVNFNYCTGILGSQSITSGKHYWEVDVSKKTAWILGVCAGFQPDAMCNIEKNENYQPKYGYWVIGLEEGVKCSAFQDSSFHTPSVPFIVPLSVIICPDRVGVFLDYEACTVSFFNITNHGFLIYKFSHCSFSQPVFPYLNPRKCGVPMTLCSPSS [human TRIM5α, 330-340 = GAPGTRFQSLV] | 0.0383 ± 0.052
5 | MASGILVNVKEEVTCPICLELLTQPLSLDCGHSFCQACLTANHKKSMLDKGESSCPVCRISYQPENIRPNRHVANIVEKLREVKLSPEGQKVDHCARHGEKLLLFCQEDGKVICWLCERSQEHRGHHTFLTEEVAREYQVKLQAALEMLRQKQQEAEELEADIREEKASWKTQIQYDKTNVLADFEQLRDILDWEESNELQNLEKEEEDILKSLTNSETEMVQQTQSLRELISDLEHRLQGSVMELLQGVDGVIKRTENVTLKKPETFPKNQRRVFRAPDLKGMLEVFRELTDVRRYWVDVTVAPNNISCAVISEDKRQVSSPKPQIIYQARGTRYQSLVNFNYCTGILGSQSITSGKHYWEVDVSKKTAWILGVCAGFQPDAMCNIEKNENYQPKYGYWVIGLEEGVKCSAFQDSSFHTPSVPFIVPLSVIICPDRVGVFLDYEACTVSFFNITNHGFLIYKFSHCSFSQPVFPYLNPRKCGVPMTLCSPSS [human TRIM5α, 330-340 = QARGTRYQSLV] | 0.00542 ± 0.0061
6 | MASGILVNVKEEVTCPICLELLTQPLSLDCGHSFCQACLTANHKKSMLDKGESSCPVCRISYQPENIRPNRHVANIVEKLREVKLSPEGQKVDHCARHGEKLLLFCQEDGKVICWLCERSQEHRGHHTFLTEEVAREYQVKLQAALEMLRQKQQEAEELEADIREEKASWKTQIQYDKTNVLADFEQLRDILDWEESNELQNLEKEEEDILKSLTNSETEMVQQTQSLRELISDLEHRLQGSVMELLQGVDGVIKRTENVTLKKPETFPKNQRRVFRAPDLKGMLEVFRELTDVRRYWVDVTVAPNNISCAVISEDKRQVSSPKPQIIYGARGTLYTFQTLVNFNYCTGILGSQSITSGKHYWEVDVSKKTAWILGVCAGFQPDAMCNIEKNENYQPKYGYWVIGLEEGVKCSAFQDSSFHTPSVPFIVPLSVIICPDRVGVFLDYEACTVSFFNITNHGFLIYKFSHCSFSQPVFPYLNPRKCGVPMTLCSPSS [human TRIM5α, 330-340 = GARGTLYTFQTLV] | 0.209 ± 0.24
7 | MASGILVNVKEEVTCPICLELLTQPLSLDCGHSFCQACLTANHKKSMLDKGESSCPVCRISYQPENIRPNRHVANIVEKLREVKLSPEGQKVDHCARHGEKLLLFCQEDGKVICWLCERSQEHRGHHTFLTEEVAREYQVKLQAALEMLRQKQQEAEELEADIREEKASWKTQIQYDKTNVLADFEQLRDILDWEESNELQNLEKEEEDILKSLTNSETEMVQQTQSLRELISDLEHRLQGSVMELLQGVDGVIKRTENVTLKKPETFPKNQRRVFRAPDLKGMLEVFRELTDVRRYWVDVTVAPNNISCAVISEDKRQVSSPKPQIIYQAPGTLYTFQTFTNFNYCTGILGSQSITSGKHYWEVDVSKKTAWILGVCAGFQPDAMCNIEKNENYQPKYGYWVIGLEEGVKCSAFQDSSFHTPSVPFIVPLSVIICPDRVGVFLDYEACTVSFFNITNHGFLIYKFSHCSFSQPVFPYLNPRKCGVPMTLCSPSS [human TRIM5α, 330-340 = QAPGTLYTFQTFT] | 0.508 ± 0.13
8 | MASGILVNVKEEVTCPICLELLTQPLSLDCGHSFCQACLTANHKKSMLDKGESSCPVCRISYQPENIRPNRHVANIVEKLREVKLSPEGQKVDHCARHGEKLLLFCQEDGKVICWLCERSQEHRGHHTFLTEEVAREYQVKLQAALEMLRQKQQEAEELEADIREEKASWKTQIQYDKTNVLADFEQLRDILDWEESNELQNLEKEEEDILKSLTNSETEMVQQTQSLRELISDLEHRLQGSVMELLQGVDGVIKRTENVTLKKPETFPKNQRRVFRAPDLKGMLEVFRELTDVRRYWVDVTVAPNNISCAVISEDKRQVSSPKPQIIYGAPGTLFTFQTLVNFNYCTGILGSQSITSGKHYWEVDVSKKTAWILGVCAGFQPDAMCNIEKNENYQPKYGYWVIGLEEGVKCSAFQDSSFHTPSVPFIVPLSVIICPDRVGVFLDYEACTVSFFNITNHGFLIYKFSHCSFSQPVFPYLNPRKCGVPMTLCSPSS [human TRIM5α, 330-340 = GAPGTLFTFQTLV] | 0.139 ± 0.17

same assay, conditions: library: insertions and deletions

Row | Sequence | enrichment
9 | MASGILVNVKEEVTCPICLELLTQPLSLDCGHSFCQACLTANHKKSMLDKGESSCPVCRISYQPENIRPNRHVANIVEKLREVKLSPEGQKVDHCARHGEKLLLFCQEDGKVICWLCERSQEHRGHHTFLTEEVAREYQVKLQAALEMLRQKQQEAEELEADIREEKASWKTQIQYDKTNVLADFEQLRDILDWEESNELQNLEKEEEDILKSLTNSETEMVQQTQSLRELISDLEHRLQGSVMELLQGVDGVIKRTENVTLKKPETFPKNQRRVFRAPDLKGMLEVFRELTDVRRYWVDVTVAPNNISCAVISEDKRQVSSPKPQIIYGARFNYCTGILGSQSITSGKHYWEVDVSKKTAWILGVCAGFQPDAMCNIEKNENYQPKYGYWVIGLEEGVKCSAFQDSSFHTPSVPFIVPLSVIICPDRVGVFLDYEACTVSFFNITNHGFLIYKFSHCSFSQPVFPYLNPRKCGVPMTLCSPSS [human TRIM5α, 9-codon deletion at 333] | 1.39 ± 0.8
10 | MASGILVNVKEEVTCPICLELLTQPLSLDCGHSFCQACLTANHKKSMLDKGESSCPVCRISYQPENIRPNRHVANIVEKLREVKLSPEGQKVDHCARHGEKLLLFCQEDGKVICWLCERSQEHRGHHTFLTEEVAREYQVKLQAALEMLRQKQQEAEELEADIREEKASWKTQIQYDKTNVLADFEQLRDILDWEESNELQNLEKEEEDILKSLTNSETEMVQQTQSLRELISDLEHRLQGSVMELLQGVDGVIKRTENVTLKKPETFPKNQRRVFRAPDLKGMLEVFRELTDVRRYWVDVTVAPNNISCAVISEDKRQVSSPKPQIIYGAIIYGARGTRYQTFVNFNYCTGILGSQSITSGKHYWEVDVSKKTAWILGVCAGFQPDAMCNIEKNENYQPKYGYWVIGLEEGVKCSAFQDSSFHTPSVPFIVPLSVIICPDRVGVFLDYEACTVSFFNITNHGFLIYKFSHCSFSQPVFPYLNPRKCGVPMTLCSPSS [human TRIM5α, 5-codon duplication at 327] | 0.787 ± 0.71
11 | MASGILVNVKEEVTCPICLELLTQPLSLDCGHSFCQACLTANHKKSMLDKGESSCPVCRISYQPENIRPNRHVANIVEKLREVKLSPEGQKVDHCARHGEKLLLFCQEDGKVICWLCERSQEHRGHHTFLTEEVAREYQVKLQAALEMLRQKQQEAEELEADIREEKASWKTQIQYDKTNVLADFEQLRDILDWEESNELQNLEKEEEDILKSLTNSETEMVQQTQSLRELISDLEHRLQGSVMELLQGVDGVIKRTENVTLKKPETFPKNQRRVFRAPDLKGMLEVFRELTDVRRYWVDVTVAPNNISCAVISEDKRQVSSPKPQIIYKPQIIYGARGTRYQTFVNFNYCTGILGSQSITSGKHYWEVDVSKKTAWILGVCAGFQPDAMCNIEKNENYQPKYGYWVIGLEEGVKCSAFQDSSFHTPSVPFIVPLSVIICPDRVGVFLDYEACTVSFFNITNHGFLIYKFSHCSFSQPVFPYLNPRKCGVPMTLCSPSS [human TRIM5α, 6-codon duplication at 324] | 0.769 ± 0.16
12 | MASGILVNVKEEVTCPICLELLTQPLSLDCGHSFCQACLTANHKKSMLDKGESSCPVCRISYQPENIRPNRHVANIVEKLREVKLSPEGQKVDHCARHGEKLLLFCQEDGKVICWLCERSQEHRGHHTFLTEEVAREYQVKLQAALEMLRQKQQEAEELEADIREEKASWKTQIQYDKTNVLADFEQLRDILDWEESNELQNLEKEEEDILKSLTNSETEMVQQTQSLRELISDLEHRLQGSVMELLQGVDGVIKRTENVTLKKPETFPKNQRRVFRAPDLKGMLEVFRELTDVRRYWVDVTVAPNNISCAVISEDKRQVSSPKPQGTRYQTFVNFNYCTGILGSQSITSGKHYWEVDVSKKTAWILGVCAGFQPDAMCNIEKNENYQPKYGYWVIGLEEGVKCSAFQDSSFHTPSVPFIVPLSVIICPDRVGVFLDYEACTVSFFNITNHGFLIYKFSHCSFSQPVFPYLNPRKCGVPMTLCSPSS [human TRIM5α, 6-codon deletion at 327] | 0.744 ± 0.079
